From PubChem BioAssay AID485297 (National Center for Advancing Translational Sciences (NCATS), 2010)
The campaign covered roughly 320,000 compounds. About 9,100 (2.8%) were called active. Inconclusive results, whose numbers are uncertain, are shown with a selection of clear calls. The call rests on the fitted dose curve; in most records, active means well fitted activation curve with a large enough effect; inconclusive means small, poorly fitted or top-dose-only effect; inactive means no such curve, though single readings can be large or run the other way. Potencies of inconclusive entries are left out as doubtful fits.

Experiment: qHTS Assay for Rab9 Promoter Activators; further: nearly all actives have a fitted effect of over 60% in size; on activation, negative = inhibition: % of control where 0% means no effect
Details: Huh7 Rab9 promoter-luciferase reporter, luminescence, 24 h; series mostly up to 9.22 µM; activation, negative = inhibition: at the top concentration
Procedure, shortened: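 Huh7 cells stably carrying a Rab9 promoter-luciferase reporter, 1500 cells per well in OP-MEM I with 10% FBS, treated with compound 24 hours at 37C. Luciferase activity read by luminescence after 10 minutes with Amplite reagent.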
Potency means the concentration at half of the fitted maximal effect; tags describe the fitted curve by direction and shape.

For `Cc1ccccc1NC(=O)C1Cc2ccccc2CN1C(=O)c1ccco1` (centres undefined), which Potency is on record?
Its Potency is inconclusive [activator, partial curve, poor fit].

For `CCOc1ccccc1C(=O)Nc1cccc(-c2ccc(N3CCOCC3)nn2)c1`, which Potency is on record?
The Potency was active: 4.47 µM.

For `COc1ccc(Cc2nc(-c3cccs3)no2)cc1`, which Potency is on record?
The Potency was inconclusive [activator, single point].

For `CCC(=O)Nc1cccc(-c2ccc(N3CCCCC3)nn2)c1`, which Potency is on record?
Its Potency is active: 0.447 µM.

Which “activation, negative = inhibition” value does the source give for `CCN(CC(=O)Nc1ccc(NC(C)=O)cc1)C(=O)c1ccc2c(c1)OCO2` here?
Its value is inactive: -0.0083%.

Which Potency does the source give for `COc1ccc(-n2ncc3c(NCc4ccccn4)ncnc32)cc1` here?
Its Potency is inconclusive [activator, partial curve].

Which Potency does the source give for `CCCN1C(=O)S/C(=C\c2ccc(N3CCOCC3)o2)C1=O` here?
The Potency was inconclusive [activator, single point].

Which Potency does the source give for `CSCc1ccc(C(=O)Nc2cccc(C)c2C)cc1` here?
Its Potency is inconclusive [activator, single point].

Which Potency does the source give for `CCn1cc(CNC(=O)NC2CCCCC2)c(C)n1` here?
Its Potency is inconclusive [activator, single point].

With `Cn1c(=O)c(/C=C/c2ccc(F)cc2)nc2ccccc21` as the molecule, how does the “activation, negative = inhibition” value read?
The value was inactive: -29.9%.

Which “activation, negative = inhibition” value does the source give for `CC1CCCCC12NC(=O)N(CC(=O)N1CCN(Cc3ccc(C#N)cc3)CC1)C2=O` (centres undefined) here?
The value was inactive: -23%.

For `O=C(Nc1ccc(F)cc1)c1nsc(Cl)c1Cl`, which Potency is on record?
The Potency was active: 3.16 µM.

With `Cc1occc1C(=O)N/N=C/c1ccc(N(C)C)cc1` as the molecule, how does the Potency read?
The Potency was active: 0.112 µM.

With `CC(=O)Nc1ccc(SCCN2CC[C@@H](C(C)(C)C)CCC2=O)cc1` as the molecule, how does the Potency read?
The Potency was inconclusive [activator, partial curve].

Which “activation, negative = inhibition” value does the source give for `CCN(CC)S(=O)(=O)c1ccc(-n2cnc3cc(C)c(C)cc32)nc1` here?
Its value is inactive: -0.618%.

With `CN(C)c1ccc(/C=C/c2ccc3ccccc3n2)cc1` as the molecule, how does the Potency read?
The Potency was inconclusive [activator, full curve, poor fit].

Which “activation, negative = inhibition” value does the source give for `CCN(CC)c1ccc(NC(=O)c2cc3c(OC)cccc3[nH]2)cc1` here?
The value was inactive: 4.65%.

For `O=C(Nc1ccc2c(c1)C(=O)NC2=O)c1ccc(Cl)s1`, which “activation, negative = inhibition” value is on record?
Its value is inactive: 2.26%.

Which “activation, negative = inhibition” value does the source give for `Cc1onc(-c2c(F)cccc2Cl)c1C(=O)NC(C)c1ccccc1` (centres undefined) here?
The value was inactive: 3.42%.

Which Potency does the source give for `COc1ccccc1OCCCOc1ccc(C)cc1Br` here?
Its Potency is inconclusive [activator, single point].

Which “activation, negative = inhibition” value does the source give for `CCN1N=C(c2ccccc2)Cn2c1nc1ccccc12` here?
The value was inactive: 0.554%.

With `CCc1nc(SCc2ccccc2)n[nH]1` as the molecule, how does the Potency read?
The Potency was inconclusive [activator, single point].

For `O=C(NCCN1CCOCC1)c1ccc(/C=C2\Sc3ccccc3N(Cc3ccccc3F)C2=O)cc1`, which “activation, negative = inhibition” value is on record?
Its value is inactive: 0.829%.

With `COc1ccc(/C=C2\SC(=O)N(CCNC(=O)Cn3cnnn3)C2=O)cc1` as the molecule, how does the Potency read?
The Potency was active: 3.16 µM.

Which Potency does the source give for `CCc1ccc(-c2cc(C(=O)Nn3cnnc3)c3ccccc3n2)cc1` here?
Its Potency is inconclusive [activator, partial curve].

Which Potency does the source give for `Cc1ccc(NC(=O)c2ccc(OC(=O)COc3ccc(Cl)c(C)c3)cc2)cc1` here?
The Potency was active: 3.55 µM.

Which Potency does the source give for `CCN1C(=O)c2cccc3c(NC(=O)c4ccc5c(c4)OCCO5)ccc1c23` here?
Its Potency is inconclusive [activator, partial curve].

With `COc1cccc(C(=O)NCCC2=CCCCC2)c1OC` as the molecule, how does the Potency read?
Its Potency is active: 3.98 µM.

Which Potency does the source give for `COc1cccc(C(=O)Nc2ccc(NC(=O)c3ccco3)cn2)c1` here?
Its Potency is inconclusive [activator, single point].

Which Potency does the source give for `CCOC(=O)c1c(C)nc(-c2ccccc2)nc1N` here?
The Potency was inconclusive [activator, single point].

For `Cc1cc(/C=N/Nc2nc(N3CCOCC3)nc(N3CCOCC3)n2)c(C)n1-c1ccccc1`, which “activation, negative = inhibition” value is on record?
The value was inactive: 3.38%.

For `COc1ccc(/C=N/Nc2nc3ccccc3o2)cc1O`, which Potency is on record?
Its Potency is inconclusive [activator, single point].

Which “activation, negative = inhibition” value does the source give for `Cc1nn(-c2ccc(F)cc2)c(Cl)c1/C=N/NC(=O)c1ccc(O)cc1` here?
Its value is inactive: -0.244%.

With `COC(=O)C1=C(C)NC(=O)/C1=C\c1cc(C)n(-c2ccccc2C)c1C` as the molecule, how does the “activation, negative = inhibition” value read?
The value was inactive: -0.267%.

For `CC1Sc2ccc(C(=O)Nc3ccccc3OC(F)F)cc2NC1=O` (centres undefined), which Potency is on record?
The Potency was inconclusive [activator, single point].

For `COc1cc(O)oc1C=Nc1ccc(Oc2ccccc2)cc1`, which Potency is on record?
Its Potency is inconclusive [activator, partial curve].

With `CCOC(=O)c1cc2sccc2n1CC(=O)N1CCCc2ccccc21` as the molecule, how does the Potency read?
The Potency was inconclusive [activator, single point].

For `CC(=O)c1ccc(-c2nc3ccccc3n2C)o1`, which Potency is on record?
The Potency was inconclusive [activator, single point].

With `COc1ccccc1C(=O)CSc1nnc(-c2ccco2)o1` as the molecule, how does the Potency read?
The Potency was inconclusive [activator, partial curve].

Which Potency does the source give for `CCCCN1C(=O)NC(NC(C)=O)(C(F)(F)F)C1=O` (centres undefined) here?
The Potency was inconclusive [activator, single point].

With `Cc1ccc(-c2cc(NC(=O)CSc3n[nH]c(N)n3)n(-c3ccccc3)n2)cc1` as the molecule, how does the “activation, negative = inhibition” value read?
The value was inactive: 7.11%.

With `O=C(Nc1ccc2c(c1)OCCO2)c1cnn(-c2ccccc2)n1` as the molecule, how does the Potency read?
The Potency was active: 2.82 µM.

With `COc1ccc(C(=O)Nn2c(SCC(=O)NC3CCCCC3)nc3ccccc3c2=O)cc1` as the molecule, how does the Potency read?
The Potency was active: 3.98 µM.

Which Potency does the source give for `COCCNC(=S)NC(=O)c1ccc(C(C)(C)C)cc1` here?
Its Potency is inconclusive [activator, single point].

For `Fc1ccccc1OCCSc1ncnc2nc[nH]c12`, which Potency is on record?
Its Potency is inconclusive [activator, single point].

For `CC(=O)c1cccc(NC(=O)Nc2ccc(C(=O)N3CCCC3)cc2)c1`, which “activation, negative = inhibition” value is on record?
The value was inactive: 13.4%.

For `Cc1nn(C)c(C(=O)Nc2ccc(S(=O)(=O)NC34CC5CC(CC(C5)C3)C4)cc2)c1Br`, which Potency is on record?
Its Potency is active: 1.58 µM.

Which Potency does the source give for `CNC(C)C#Cc1ccc2c(=O)c3c(OC)cccc3oc2c1` (centres undefined) here?
The Potency was inconclusive [activator, partial curve].

With `Cn1c(SCc2ccccc2)nnc1-c1ccc2c(c1)OCO2` as the molecule, how does the Potency read?
The Potency was inconclusive [activator, single point].

Which Potency does the source give for `CC(=O)Nc1ccc2nc(NC(=O)c3ccc([N+](=O)[O-])s3)sc2c1` here?
The Potency was inconclusive [activator, partial curve].

Which “activation, negative = inhibition” value does the source give for `CCC1Oc2ccc(C)cc2N(CC(=O)NCC2CCCO2)C1=O` (centres undefined) here?
The value was inactive: -2.24%.

With `CS(=O)(=O)c1ccccc1-c1nnc(-c2ccc(Cl)cc2)o1` as the molecule, how does the Potency read?
Its Potency is inconclusive [activator, single point].

With `O=C1N=C(N2CCCCC2)S/C1=C/C1=Cc2ccccc2OC1` as the molecule, how does the “activation, negative = inhibition” value read?
Its value is inactive: 19.9%.

Which Potency does the source give for `COc1cc(C)ccc1OCCCOc1ccccc1Br` here?
Its Potency is active: 1.41 µM.

For `N/C(=N\OC(=O)N1CCOCC1)c1ccc(Br)cc1`, which Potency is on record?
The Potency was inconclusive [activator, single point].

For `Cc1ccc2oc(C(=O)N(C)Cc3ccon3)c(C)c2c1`, which Potency is on record?
The Potency was active: 3.55 µM.

Which Potency does the source give for `C/C(=N\Nc1ccc(C)c(Cl)c1)c1cccnc1` here?
Its Potency is inconclusive [activator, partial curve].

With `Cc1cccc2c1[nH]c1nc(N/N=C\c3ccco3)nnc12` as the molecule, how does the “activation, negative = inhibition” value read?
Its value is inactive: 13.7%.

For `CCCN1CCC(=O)N([C@H](CSc2ccccc2)c2ccccc2)CC1`, which Potency is on record?
Its Potency is inconclusive [activator, partial curve].

Which Potency does the source give for `CC(C)c1ccc(NC(=O)COc2ccccc2)cc1` here?
Its Potency is inconclusive [activator, partial curve, poor fit].

Which “activation, negative = inhibition” value does the source give for `CCc1nc(OCc2ccco2)c2sc3nc4c(cc3c2n1)COC(C)(C)C4` here?
The value was inactive: 0.0826%.

With `NNC(=O)c1cccc(S(=O)(=O)Nc2cc(Cl)ccc2Cl)c1` as the molecule, how does the Potency read?
Its Potency is inconclusive [activator, single point].

Which “activation, negative = inhibition” value does the source give for `C=CCn1c(=O)c2ccccc2n2c(SCC(=O)Nc3sc(C)c(CC)c3C(=O)OCC)nnc12` here?
Its value is inactive: -1.66%.

Which “activation, negative = inhibition” value does the source give for `CC1(c2ccccc2)NC(=O)N(CC(=O)NNC(=O)c2ccccc2)C1=O` (centres undefined) here?
Its value is inactive: -1.21%.

With `Cc1c(Cl)c(C(=O)NNC(=S)Nc2ccc(F)cc2)nn1C` as the molecule, how does the Potency read?
Its Potency is inconclusive [activator, partial curve].

With `Cc1cccc(N/C=C/C(=O)c2ccc(Cl)cc2)c1` as the molecule, how does the Potency read?
Its Potency is active: 0.355 µM.

For `Cc1ccnc(NC(=O)c2ccc(Cl)c(NC(=O)CCc3ccccc3)c2)c1`, which “activation, negative = inhibition” value is on record?
Its value is inactive: 5.22%.

Which “activation, negative = inhibition” value does the source give for `CCOc1ccc(Cn2nnc(-c3ccc(S(C)(=O)=O)cc3)n2)cc1OCC` here?
Its value is inactive: -10.8%.

For `Cn1cccc1C(=O)OCc1cc(Cl)cc2c1OCOC2`, which Potency is on record?
Its Potency is inconclusive [activator, single point].

Which Potency does the source give for `O=C(Nc1ccc(-c2cn3c(n2)SCC3)cc1)c1ccco1` here?
The Potency was active: 0.891 µM.

Which Potency does the source give for `CN1C(=O)/C(=C/C=C2\SCCN2C)SC1=S` here?
The Potency was active: 3.16 µM.

Which Potency does the source give for `COc1ccc(/C=C/c2cc(C(=O)O)c3ccccc3n2)cc1` here?
Its Potency is inconclusive [activator, full curve, poor fit].

Which “activation, negative = inhibition” value does the source give for `Cc1cc(C)cc(NC(=O)C(=O)NCCCN2CCOCC2)c1` here?
The value was inactive: 1.55%.

For `CC(C)(C)c1ccc(/C=C/C(=O)Nc2nncs2)cc1`, which Potency is on record?
The Potency was active: 0.708 µM.

For `COc1ccc(NC(=O)c2cc(F)cc(F)c2)cc1Cl`, which Potency is on record?
Its Potency is inconclusive [activator, partial curve].

Which Potency does the source give for `COc1ccc(-c2nnc(SCC(=O)c3cccs3)o2)c(OC)c1` here?
Its Potency is active: 1.12 µM.

Which Potency does the source give for `Cc1ccc2cc(CCNC(=O)c3cccs3)c(=O)[nH]c2c1` here?
Its Potency is inconclusive [activator, partial curve].

With `O=C(CSc1nnnn1-c1ccc(Cl)cc1)NC(=O)Nc1ccc2c(c1)OCCO2` as the molecule, how does the Potency read?
Its Potency is inconclusive [activator, partial curve].

With `O=C1C(Cc2ccccc2)Nc2ncnc(N3CCN(c4ccccc4)CC3)c2N1Cc1ccc(Cl)cc1` (centres undefined) as the molecule, how does the Potency read?
Its Potency is inconclusive [activator, single point].
